Test results from a compilation of properties of binary mixtures (doi:10.1016/j.molliq.2018.07.077).
Some of these densities may be calculated back from excess volumes.

Test: xn = mol fraction of the nth substance listed
Details: 101 kPa

C[n+]1ccn(CCCC#N)c1.O=S(=O)([O-])C(F)(F)F + CC#N
mass density [kg/m3]
Details	x1 = 0.1002	x1 = 0.2002	x1 = 0.2994	x1 = 0.4006	x1 = 0.5	x1 = 0.6005	x1 = 0.698	x1 = 0.7996	x1 = 0.9007	x1 = 1
288.15 K	–	1135.6	–	1282.8	–	1364.2	1391.7	1415	1434.3	1449.2
293.15 K	1000.5	1130.7	1216.1	1278.2	1323.5	–	1387.4	1410.7	1430.2	1445
298.15 K	995.4	1125.9	1211.4	1273.7	1319	1355.3	1383	–	1425.9	1440.9
303.15 K	990.3	1121	1206.8	1269.1	1314.5	1350.9	1378.6	1402.1	–	–
308.15 K	985.3	1116.3	–	1264.6	1310.1	1346.5	1374.3	1397.9	1417.5	–
313.15 K	980.2	–	1197.3	1260	–	1341.9	1369.9	–	1413.4	1428.4
318.15 K	–	1106.5	1192.7	1255.3	–	1337.5	–	1389.3	–	1424.3
323.15 K	–	1101.7	1187.9	1250.8	1296.5	–	1361	1385	1404.9	1420

CC#N + C[n+]1ccn(CCCC#N)c1.O=S(=O)([O-])C(F)(F)F
x2 = 0
Details	mass density [kg/m3]
288.15 K	787.3
293.15 K	782
298.15 K	776.6
308.15 K	765.7
313.15 K	760.2
318.15 K	754.7
323.15 K	749.2
